{"source": "PubChem BioAssay AID686978", "about": "(National Center for Advancing Translational Sciences (NCATS), 2013)", "note": "“And” between values parts separate entries of the source, which are not always exact repeats. Equal values may be shown once. About 64,000 (15%) of roughly 420,000 compounds were called active. The inconclusive results got no clear call from the source; some entries with a clear call stand among them for comparison. Calls come from the whole dose curve; as a rule, active = well fitted inhibition curve with a large enough effect; inconclusive = small, poorly fitted or top-dose-only effect; inactive = flat fitted curve, though single readings scatter. Potencies beside an inconclusive call are fits to weak or partial responses and may not hold up. % is set by controls: 0 for no effect and ±100 for the full control effect; potency is the fitted concentration of half-maximal effect; tags give direction and shape of the fitted curve.", "data": [{"assay": "qHTS for Inhibitors of human tyrosyl-DNA phosphodiesterase 1 (TDP1): qHTS in cells in absence of CPT; note: nearly all actives have a fitted effect of over 55% in size", "conditions": "DT40 Tdp1-/- hTDP1 cells, no CPT, ATP luminescence, 48 h; activity change, negative = growth inhibition: at 46.2 µM (top of the series) unless noted", "summary_of_the_method": "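Growth kinetics read by CellTiter-Glo luminescence after ≥48 hr at 37 °C. Cells: DT40 Tdp1-/- stably carrying human TDP1, 400 per well, compound exposure in the absence of CPT (DMSO vehicle).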", "values": [{"smiles": "O=C(CN1CCOCC1)NNC(=O)c1ccc([N+](=O)[O-])cc1", "Potency": "inactive"}, {"smiles": "O=c1cc(CSc2nnc(COc3cccc4ccccc34)o2)c2ccccc2[nH]1", "Potency": "inconclusive: 11.6 µM [inhibitor, partial curve]"}, {"smiles": "CC1Cc2ccccc2N1NC(=O)c1ccc(Cl)c(S(N)(=O)=O)c1", "note": "(stereo not drawn)", "Potency": "inactive"}, {"smiles": "CCCCN(C)C(=O)Cn1c(SCC(=O)Nc2ccc(C)c(C)c2)nc2ccccc21", "Potency": "active: 13 µM"}, {"smiles": "CC1CCN(C(=O)C(C)OC(=O)c2ccc(S(C)(=O)=O)c([N+](=O)[O-])c2)CC1", "note": "(stereo not drawn)", "Potency": "active: 2.24 µM"}, {"smiles": "CCc1ccc(N2CCN(C(=O)c3ccc4c(c3)OCO4)CC2)cc1", "Potency": "inconclusive: 20.6 µM [inhibitor, single point]"}, {"smiles": "COc1ccc(CCNC(=O)COc2ccc(N(C)S(=O)(=O)c3ccc(C)cc3)cc2)cc1", "Potency": "inconclusive: 18.4 µM [inhibitor, single point]"}, {"smiles": "O=C(C1CC1c1ccccc1)N1CCN(c2cccc(Cl)c2)CC1", "note": "(stereo not drawn)", "Potency": "inactive"}, {"smiles": "O=C1N=C(N2CCOCC2)S/C1=C\\C=C/c1ccccc1", "Potency": "inactive"}, {"smiles": "O=C(c1ccccc1F)N(Cc1ccc2c(c1)OCO2)Cc1cc2cc3c(cc2n2nnnc12)OCO3", "Potency": "inconclusive: 29.1 µM [inhibitor, single point]"}, {"smiles": "O=C(O)C1CCCN1", "note": "(stereo not drawn)", "Potency": "inactive"}, {"smiles": "CCC1(C(=O)c2ccccc2)C(c2cccc([N+](=O)[O-])c2)C1(C(=O)OC)C(=O)OC", "note": "(stereo not drawn)", "Potency": "active: 13 µM"}, {"smiles": "Cc1cccc(Nc2c3c(nc4nncn24)CCC3)c1C", "Potency": "inconclusive: 20.6 µM [inhibitor, single point]"}, {"smiles": "O=c1c[n+]([O-])c2ccccc2n1OCc1ccccn1", "Potency": "inconclusive: 25.9 µM [inhibitor, single point]"}, {"smiles": "CCCCCCCCN1C(=O)[C@H](CC(=O)NCc2cccc(C(F)(F)F)c2)C[C@@]2(C(=O)OCC)CCCC=C12", "Potency": "inconclusive: 23.1 µM [inhibitor, single point]"}, {"smiles": "COc1ccc(CNc2ccc(S(=O)(=O)N3CCN(C)CC3)cn2)cc1OC", "Potency": "inactive"}, {"smiles": "O=C(COC(=O)Cc1ccc(S(=O)(=O)N2CCOCC2)s1)Nc1ccccc1", "activity change, negative = growth inhibition": "inconclusive: -34.3% [inhibitor]"}, {"smiles": "COc1ccccc1N1CCN(CC(O)COc2ccc(C)cc2C(C)(C)C)CC1", "note": "(stereo not drawn)", "Potency": "active: 18.4 µM"}, {"smiles": "Fc1ccc(N/N=C/C=C/c2ccccc2)c(F)c1", "Potency": "inconclusive: 29.1 µM [inhibitor, single point]"}, {"smiles": "CC1(C(=O)Nc2ccc(F)c(Cl)c2)Cc2c(-c3cccc(C(F)(F)F)c3)ccnc2O1", "note": "(stereo not drawn)", "Potency": "inconclusive: 16.4 µM [inhibitor, single point]"}, {"smiles": "COc1ccc(CCNC(=O)CCc2nnc(Cc3ccc4c(c3)OCO4)o2)cc1", "Potency": "active: 18.4 µM"}, {"smiles": "CC(C)NS(=O)(=O)c1ccc(OCC(=O)Nc2ccc(F)cc2)cc1", "Potency": "inconclusive: 29.1 µM [inhibitor, single point]"}, {"smiles": "COc1ccc(S(=O)(=O)N2CCCCCC2)cc1NC(=O)Cc1cccc(C(F)(F)F)c1", "Potency": "inconclusive: 25.9 µM [inhibitor, single point]"}, {"smiles": "COc1cc(NC(=O)c2sc3ncn(CC(=O)N4CCCCC4C)c(=O)c3c2C)cc(OC)c1OC", "note": "(stereo not drawn)", "Potency": "active: 11.6 µM"}, {"smiles": "COC(=O)c1ccc(CN2CCN(Cc3ccc(F)cc3)C(CCO)C2)cc1", "note": "(stereo not drawn)", "activity change, negative = growth inhibition": "inconclusive: -32.7% [inhibitor]"}, {"smiles": "Cc1ccsc1C(=O)Nc1ccc(F)c([N+](=O)[O-])c1", "activity change, negative = growth inhibition": "inconclusive: -30.3% [inhibitor]"}, {"smiles": "COc1ccc(N2C(=O)C3CCCN3C2c2ccc(C)o2)cc1", "note": "(stereo not drawn)", "Potency": "inactive"}, {"smiles": "Cc1ccc(CCN2CC(C(=O)NC3CCC(C)CC3)CC2=O)cc1", "note": "(stereo not drawn)", "Potency": "inconclusive: 16.4 µM [inhibitor, single point]"}, {"smiles": "CNc1nc(-c2ccc(Cl)cc2)cs1", "activity change, negative = growth inhibition": "inconclusive: -32.9% [inhibitor]"}, {"smiles": "COc1ccc(CNCCC2(C(C)C)CCOC(C)(C)C2)cc1", "note": "(stereo not drawn)", "activity change, negative = growth inhibition": "inconclusive: -30% [inhibitor]"}, {"smiles": "O=S(=O)(c1ccc(Cl)cc1)N1CCN(c2nc(Nc3cc(Cl)ccc3O)nc3ccccc23)CC1", "Potency": "inconclusive: 25.1 µM [inhibitor, single point] and inconclusive: 10 µM [inhibitor, single point]"}, {"smiles": "Cc1cc(/C=C(/C#N)C(=O)Nc2ccc(Cl)cc2)c(C)n1-c1cccnc1", "Potency": "inconclusive: 4.11 µM [inhibitor, full curve]"}, {"smiles": "CCOC(=O)c1c(C)oc2nc(C)nc(NCC3CCN(Cc4cccc(Cl)c4)CC3)c12", "Potency": "inactive"}, {"smiles": "COCC(C)n1c(SCC(=O)NCCC2=CCCCC2)nc2ccccc2c1=O", "note": "(stereo not drawn)", "Potency": "inconclusive: 29.1 µM [inhibitor, single point]"}, {"smiles": "Cc1ccc(S(=O)(=O)NCc2cccc([N+](=O)[O-])c2)cc1", "Potency": "inconclusive: 29.1 µM [inhibitor, single point]"}, {"smiles": "COc1ccccc1NC(=O)C(C)OC(=O)CCCOc1ccccc1", "note": "(stereo not drawn)", "Potency": "inactive"}, {"smiles": "CN1CCN(c2nc3c(c(=O)[nH]c(=O)n3C)n2Cc2cccc3ccccc23)CC1", "Potency": "inconclusive: 25.9 µM [inhibitor, single point]"}, {"smiles": "CC(C)[C@H](NC(=O)c1cccc(S(=O)(=O)N2CCOCC2)c1)C(=O)Nc1nc2ccccc2s1", "Potency": "inconclusive: 29.1 µM [inhibitor, single point]"}, {"smiles": "COc1ccc(S(=O)(=O)N2CCCCCC2)cc1C(=O)N1CCN(c2ccccc2O)CC1", "Potency": "inconclusive: 29.1 µM [inhibitor, single point]"}, {"smiles": "CCOC(=O)C1CCCN(C(=O)Cn2nc(CC)n3c(cc4occc43)c2=O)C1", "note": "(stereo not drawn)", "activity change, negative = growth inhibition": "inconclusive: -30.6% [inhibitor]"}, {"smiles": "Cc1ccc(C)c(N2CCN(CCCNC(=O)Nc3ccc(Cl)cc3)CC2)c1", "Potency": "active: 6.51 µM"}, {"smiles": "O=C1/C(=C/c2ccccc2)CN(C(=O)CCN2CCOCC2)C/C1=C\\c1ccccc1", "Potency": "active: 1.84 µM"}, {"smiles": "COC(=O)c1cc(NC(=O)c2cc3ccccc3o2)cc(C(=O)OC)c1", "Potency": "inconclusive: 29.1 µM [inhibitor, single point]"}, {"smiles": "Cc1cccc(NC(=O)C2CCCN(c3nc4ccccc4s3)C2)c1C", "note": "(stereo not drawn)", "Potency": "inconclusive: 25.9 µM [inhibitor, single point]"}, {"smiles": "COc1ccc(OC)c(NC(=O)C2(C)CCN2Cc2ccccc2OC(F)F)c1", "note": "(stereo not drawn)", "Potency": "active: 16.4 µM"}, {"smiles": "CCCCn1c(O)c2n(c1=O)Cc1ccccc1N=C2c1ccccc1", "Potency": "inconclusive: 29.1 µM [inhibitor, single point]"}, {"smiles": "COc1ccc(CCN2C(=O)CC(NNc3ccc([N+](=O)[O-])cc3)C2=O)cc1OC", "note": "(stereo not drawn)", "Potency": "active: 20.6 µM"}, {"smiles": "Cn1nc(C(=O)NNC(=O)CCOc2ccc(C(C)(C)C)cc2)c2ccccc2c1=O", "Potency": "inconclusive: 23.1 µM [inhibitor, single point]"}, {"smiles": "ClC1(Cl)CC1CSc1nc2ccccc2[nH]1", "note": "(stereo not drawn)", "Potency": "inconclusive: 16.4 µM [inhibitor, single point]"}, {"smiles": "Cc1ccc(N(C)S(=O)(=O)c2cccc(C(=O)Nc3nnc(C4CC4)s3)c2)cc1", "Potency": "inconclusive: 23.1 µM [inhibitor, partial curve]"}, {"smiles": "COc1ccccc1-c1nc(NCCN2CCOCC2)c2ccccc2n1", "Potency": "inactive"}, {"smiles": "CC(C)(C)c1cc(=O)[nH]c(SCc2ccccc2)n1", "Potency": "inconclusive: 18.4 µM [inhibitor, partial curve, poor fit]"}, {"smiles": "CCOC(=O)c1nn(-c2ccc(OCC)cc2)c2nc(-c3cccc(OC)c3)c(C#N)c(=O)n12", "Potency": "inconclusive: 20.6 µM [inhibitor, single point]"}, {"smiles": "CCN(CC)S(=O)(=O)c1ccc2c(c1)c(=O)c(C(=O)NCCCN(C)c1ccccc1)cn2C", "Potency": "inconclusive: 18.4 µM [inhibitor, single point]"}, {"smiles": "C#CCN(C[C@@H]1[C@@H](OC(=O)NC2CC2)[C@@H](OC(=O)NC2CC2)CN(C(=O)OC(C)C)N1C(=O)OC(C)C)S(=O)(=O)c1ccc(C)cc1", "Potency": "active: 16.4 µM"}, {"smiles": "Brc1ccc(CNc2cc3c(cc2Br)OCCO3)cc1", "Potency": "inconclusive: 23.1 µM [inhibitor, single point]"}, {"smiles": "CCOC(=O)c1c(N2C(=O)CC(Sc3ccccc3C(=O)O)C2=O)sc2c1CCCC2", "note": "(stereo not drawn)", "Potency": "active: 14.6 µM"}, {"smiles": "CSc1ccccc1C(=O)Nc1cccc([N+](=O)[O-])c1C", "Potency": "inactive"}, {"smiles": "Cc1ccc(C(=O)Nc2ccc3nc(N4CCCCC4)cc(C)c3c2)cc1F", "Potency": "active: 23.1 µM"}, {"smiles": "COc1ccc(S(=O)(=O)N2CCN(Cc3cccc(Cl)c3)CC2)cc1", "Potency": "inconclusive: 32.6 µM [inhibitor, single point]"}, {"smiles": "COc1ccc(NC(=O)CN2CCN(S(=O)(=O)c3ccc(Cl)cc3)CC2)cc1Cl", "Potency": "inconclusive: 23.1 µM [inhibitor, partial curve]"}, {"smiles": "Cc1c(NC(=O)c2ccc(-c3cccc([N+](=O)[O-])c3)o2)c(=O)n(-c2ccccc2)n1C", "Potency": "inactive"}, {"smiles": "Cc1ccc(CCNC(=O)c2ccc(CS(=O)(=O)Cc3ccccc3F)o2)cc1", "Potency": "active: 16.4 µM"}, {"smiles": "COc1ccccc1NC(=O)Nc1nc(CC(=O)Nc2ccccc2F)cs1", "Potency": "inconclusive: 23.1 µM [inhibitor, single point]"}, {"smiles": "CCn1c(SCC(N)=O)nc2sc3c(c2c1=O)CCN(C)C3", "Potency": "active: 13 µM"}, {"smiles": "OC(c1ccc2ccccc2c1)c1ncc(-c2cccc3ccccc23)[nH]1", "note": "(stereo not drawn)", "Potency": "inconclusive: 18.4 µM [inhibitor, partial curve, poor fit]"}, {"smiles": "Cc1cc(C)cc(CC2CC(=O)N(c3nc(C)cc(C)n3)C2=O)c1", "note": "(stereo not drawn)", "Potency": "inconclusive: 20.6 µM [inhibitor, single point]"}, {"smiles": "O=S(=O)(Nc1ccc(Cl)cc1)c1cccc(S(=O)(=O)c2ccc(Cl)c(Cl)c2)c1", "Potency": "inconclusive: 25.9 µM [inhibitor, single point]"}]}]}
